# Test results: the supplement of paper PMC8728848
# This is one part of the list.
# B1: PX9937F-bfa-516-16-516 (Bacteroides fragilis) (protein)
# chain: LDIDPTSSIADSNYWKTEAQFSTFNVGLHALLRECSFNFFLLGEPRADIYGDVPFGGEATQGMERLPFNTINKENTGISNFAGMYKVINQINLMIAKTKETTVLSEAGKNYYLGEAYGMRAYLYFHLLRSWGDVILYLDYTNGASLDLSNLSKAASPAEEVMKQIKEDITASEKGFGSDYSFKYGRYYWSMAATQMLKGEVYLWSGRQMGGGTADYTTAKTALQSIVSNANVSLQDDFSKVFAYNNKDNSEIIFSIRNAKDEYNMWDDRFRQNLVPQQAYMTSTYCNKEGVSFKDLPEGQLNGLIRLQIRYDLYNKAFRDGDTRKDASMTAVYQKQQDGTVKYIAPFCNKYQGVLLDGASQRSFLNDYPIYRYADCLLLLAEAKALLGEDPTAEINQVRERAYGKEFFEANKATLAYPNDKGDFYTDNKYMSGDEDPLEAILKERMREFMFEGKRWYDLRLLGADYVTKRTSAVATRLLWPINESVLTDNPALKQTPGYQN
# What was measured:
# Assay in all cases: glycan array binding signal (z-score within array); higher = stronger binding
# Conditions in all cases: glycan notation: IUPAC condensed, linker removed
# [1] = biological target: Fuc(a1-2)Gal(b1-4)GlcNAc(b1-3)Gal(b1-4)GlcNAc(b1-3)Gal(b1-4)GlcNAc
# In short: (§1)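 The binding signal is a Z-score computed within each array and averaged over linkers. Arrays of the same protein sequence at different concentrations or buffers were also averaged together. Data originate from 3228 arrays in the Consortium for Functional Glycomics database, kept only where the protein sequence was available.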
# [2] = biological target: Fuc(a1-2)Gal(b1-4)GlcNAc(b1-3)GalNAc
# In short: as §1
# [3] = biological target: Fuc(a1-2)Gal(b1-4)GlcNAc(b1-3)[Fuc(a1-2)Gal(b1-4)GlcNAc(b1-6)]GalNAc
# In short: as §1
# [4] = biological target: Fuc(a1-2)Gal(b1-4)GlcNAc(b1-3)[Fuc(a1-3)[Gal(b1-4)]GlcNAc(b1-6)]Gal(b1-4)Glc
# In short: as §1
# [5] = biological target: Fuc(a1-2)Gal(b1-4)GlcNAc(b1-6)GalNAc
# In short: as §1
# [6] = biological target: Fuc(a1-2)Gal(b1-4)GlcNAc6S
# In short: as §1
# [7] = biological target: Fuc(a1-2)Gal(b1-4)[Fuc(a1-3)]GlcNAc
# In short: as §1
# [8] = biological target: Fuc(a1-2)Gal(b1-4)[Fuc(a1-3)]GlcNAc(b1-2)Man(a1-3)[Fuc(a1-2)Gal(b1-4)[Fuc(a1-3)]GlcNAc(b1-2)Man(a1-6)]Man(b1-4)GlcNAc(b1-4)[Fuc(a1-6)]GlcNAc
# In short: as §1
# [9] = biological target: Fuc(a1-2)Gal(b1-4)[Fuc(a1-3)]GlcNAc(b1-2)[Fuc(a1-2)Gal(b1-4)[Fuc(a1-3)]GlcNAc(b1-4)]Man(a1-3)[Fuc(a1-2)Gal(b1-4)[Fuc(a1-3)]GlcNAc(b1-2)Man(a1-6)]Man(b1-4)GlcNAc(b1-4)GlcNAc
# In short: as §1
# [10] = biological target: Fuc(a1-2)Gal(b1-4)[Fuc(a1-3)]GlcNAc(b1-3)Gal(b1-4)[Fuc(a1-3)]GlcNAc
# In short: as §1
# [11] = biological target: Fuc(a1-2)Gal(b1-4)[Fuc(a1-3)]GlcNAc(b1-3)Gal(b1-4)[Fuc(a1-3)]GlcNAc(b1-3)Gal(b1-4)[Fuc(a1-3)]GlcNAc
# In short: as §1
# [12] = biological target: Fuc(a1-2)Gal(b1-4)[Fuc(a1-3)]GlcNAc(b1-3)GalNAc
# In short: as §1
# [13] = biological target: Fuc(a1-2)Gal(b1-4)[Fuc(a1-3)]GlcNAc(b1-3)[Neu5Ac(a2-6)Gal(b1-4)GlcNAc(b1-6)]Gal(b1-4)Glc
# In short: as §1
# [14] = biological target: Fuc(a1-2)Gal3S(b1-4)GlcNAc
# In short: as §1
# [15] = biological target: Fuc(a1-2)Gal6S(b1-3)GlcNAc
# In short: as §1
# [16] = biological target: Fuc(a1-2)Gal6S(b1-3)GlcNAc6S
# In short: as §1
# Fuc(a1-2)Gal6S(b1-4)Glc = biological target: Fuc(a1-2)Gal6S(b1-4)Glc
# In short: as §1
# [17] = biological target: Fuc(a1-2)Gal6S(b1-4)Glc6S
# In short: as §1
# Fuc(a1-2)[Gal(a1-3)]Gal = biological target: Fuc(a1-2)[Gal(a1-3)]Gal
# In short: as §1
# [18] = biological target: Fuc(a1-2)[Gal(a1-3)]Gal(b1-3)GalNAc
# In short: as §1
# [19] = biological target: Fuc(a1-2)[Gal(a1-3)]Gal(b1-3)GalNAc(b1-3)Gal(a1-4)Gal(b1-4)Glc
# In short: as §1
# [20] = biological target: Fuc(a1-2)[Gal(a1-3)]Gal(b1-3)GlcNAc
# In short: as §1
# [21] = biological target: Fuc(a1-2)[Gal(a1-3)]Gal(b1-3)GlcNAc(b1-2)Man(a1-3)[Fuc(a1-2)[Gal(a1-3)]Gal(b1-3)GlcNAc(b1-2)Man(a1-6)]Man(b1-4)GlcNAc(b1-4)GlcNAc
# In short: as §1
# [22] = biological target: Fuc(a1-2)[Gal(a1-3)]Gal(b1-3)GlcNAc(b1-2)Man(a1-3)[Fuc(a1-2)[Gal(a1-3)]Gal(b1-3)GlcNAc(b1-2)Man(a1-6)]Man(b1-4)GlcNAc(b1-4)[Fuc(a1-6)]GlcNAc
# In short: as §1
# [23] = biological target: Fuc(a1-2)[Gal(a1-3)]Gal(b1-3)GlcNAc(b1-3)GalNAc
# In short: as §1
# [24] = biological target: Fuc(a1-2)[Gal(a1-3)]Gal(b1-3)GlcNAc(b1-6)GalNAc
# In short: as §1
# [25] = biological target: Fuc(a1-2)[Gal(a1-3)]Gal(b1-4)Glc
# In short: as §1
# [26] = biological target: Fuc(a1-2)[Gal(a1-3)]Gal(b1-4)GlcNAc
# In short: as §1
# [27] = biological target: Fuc(a1-2)[Gal(a1-3)]Gal(b1-4)GlcNAc(b1-2)Man
# In short: as §1
# [28] = biological target: Fuc(a1-2)[Gal(a1-3)]Gal(b1-4)GlcNAc(b1-2)Man(a1-3)[Fuc(a1-2)[Gal(a1-3)]Gal(b1-4)GlcNAc(b1-2)Man(a1-6)]Man(b1-4)GlcNAc(b1-4)GlcNAc
# In short: as §1
binder,measurement,setting,value
B1,glycan array binding signal (z-score),[1],-0.219
same,glycan array binding signal (z-score),[2],0.182
same,glycan array binding signal (z-score),[3],0.052
same,glycan array binding signal (z-score),[4],-0.251
same,glycan array binding signal (z-score),[5],-0.245
same,glycan array binding signal (z-score),[6],0.094
same,glycan array binding signal (z-score),[7],-0.211
same,glycan array binding signal (z-score),[8],-0.046
same,glycan array binding signal (z-score),[9],-0.08
same,glycan array binding signal (z-score),[10],-0.144
same,glycan array binding signal (z-score),[11],-0.145
same,glycan array binding signal (z-score),[12],0.061
same,glycan array binding signal (z-score),[13],-0.24
same,glycan array binding signal (z-score),[14],-0.168
same,glycan array binding signal (z-score),[15],-0.023
same,glycan array binding signal (z-score),[16],-0.047
same,glycan array binding signal (z-score),Fuc(a1-2)Gal6S(b1-4)Glc,0.175
same,glycan array binding signal (z-score),[17],0.137
same,glycan array binding signal (z-score),Fuc(a1-2)[Gal(a1-3)]Gal,-0.057
same,glycan array binding signal (z-score),[18],0.078
same,glycan array binding signal (z-score),[19],-0.351
same,glycan array binding signal (z-score),[20],0.033
same,glycan array binding signal (z-score),[21],-0.058
same,glycan array binding signal (z-score),[22],0.417
same,glycan array binding signal (z-score),[23],-0.246
same,glycan array binding signal (z-score),[24],0.688
same,glycan array binding signal (z-score),[25],0.153
same,glycan array binding signal (z-score),[26],-0.012
same,glycan array binding signal (z-score),[27],-0.047
same,glycan array binding signal (z-score),[28],1.48
